Assay results from the supplement of paper PMC8728848.
This is one part of the list.

Key:
Assay in all cases: glycan array binding signal (z-score within array); higher = stronger binding
Conditions in all cases: glycan notation: IUPAC condensed, linker removed
[1] = molecular target: Gal6S(b1-4)GlcNAc
Procedure, shortened: (§1)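 The binding signal is a Z-score computed within each array. Data were drawn from 3228 arrays in the Consortium for Functional Glycomics database, restricted to those with a known protein sequence. Scores were averaged over arrays of the same protein sequence at different concentrations or buffers, and over linkers, and negative values can be taken as non-binding.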

[2] = molecular target: GalNAc(a1-3)Gal
Procedure, shortened: as §1

[3] = molecular target: GalNAc(a1-3)GalNAc
Procedure, shortened: as §1

[4] = molecular target: GalNAc(b1-3)Gal(a1-4)Gal(b1-4)GlcNAc
Procedure, shortened: as §1

[5] = molecular target: GalNAc(b1-3)GalNAc
Procedure, shortened: as §1

[6] = molecular target: GalNAc(b1-4)GlcNAc
Procedure, shortened: as §1

[7] = molecular target: Glc(a1-4)Glc
Procedure, shortened: as §1

[8] = molecular target: Glc(a1-6)Glc(a1-6)Glc
Procedure, shortened: as §1

[9] = molecular target: Glc(b1-4)Glc
Procedure, shortened: as §1

[10] = molecular target: Glc(b1-6)Glc
Procedure, shortened: as §1

[11] = molecular target: GlcA(b1-3)Gal
Procedure, shortened: as §1

[12] = molecular target: GlcA(b1-6)Gal
Procedure, shortened: as §1

[13] = molecular target: GlcNAc(a1-3)Gal(b1-4)GlcNAc
Procedure, shortened: as §1

[14] = molecular target: GlcNAc(a1-6)Gal(b1-4)GlcNAc
Procedure, shortened: as §1

[15] = molecular target: GlcNAc(b1-2)Gal(b1-3)GalNAc
Procedure, shortened: as §1

[16] = molecular target: GlcNAc(b1-2)Man(a1-3)[GlcNAc(b1-2)Man(a1-6)]Man(b1-4)GlcNAc(b1-4)GlcNAc
Procedure, shortened: as §1

[17] = molecular target: GlcNAc(b1-3)Gal
Procedure, shortened: as §1

[18] = molecular target: GlcNAc(b1-3)Gal(b1-3)GalNAc
Procedure, shortened: as §1

[19] = molecular target: GlcNAc(b1-3)Gal(b1-4)Glc
Procedure, shortened: as §1

[20] = molecular target: GlcNAc(b1-3)Gal(b1-4)GlcNAc
Procedure, shortened: as §1

[21] = molecular target: GlcNAc(b1-3)Gal(b1-4)GlcNAc(b1-3)Gal(b1-4)GlcNAc
Procedure, shortened: as §1

[22] = molecular target: GlcNAc(b1-3)GalNAc
Procedure, shortened: as §1

[23] = molecular target: GlcNAc(b1-3)[GlcNAc(b1-6)]Gal(b1-4)GlcNAc
Procedure, shortened: as §1

[24] = molecular target: GlcNAc(b1-3)[GlcNAc(b1-6)]GalNAc
Procedure, shortened: as §1

[25] = molecular target: GlcNAc(b1-3)[GlcNAc(b1-6)]GlcNAc(b1-4)GlcNAc
Procedure, shortened: as §1

[26] = molecular target: GlcNAc(b1-4)Gal(b1-4)GlcNAc
Procedure, shortened: as §1

[27] = molecular target: GlcNAc(b1-4)GlcNAc(b1-4)GlcNAc
Procedure, shortened: as §1

[28] = molecular target: GlcNAc(b1-4)GlcNAc(b1-4)GlcNAc(b1-4)GlcNAc(b1-4)GlcNAc
Procedure, shortened: as §1

[29] = molecular target: GlcNAc(b1-4)GlcNAc(b1-4)GlcNAc(b1-4)GlcNAc(b1-4)GlcNAc(b1-4)GlcNAc
Procedure, shortened: as §1

[30] = molecular target: GlcNAc(b1-4)[GlcNAc(b1-6)]GalNAc
Procedure, shortened: as §1

[31] = molecular target: GlcNAc(b1-6)Gal(b1-4)GlcNAc
Procedure, shortened: as §1

[32] = molecular target: GlcNAc(b1-6)GalNAc
Procedure, shortened: as §1

[33] = molecular target: Kdn(a2-3)Gal(b1-3)GlcNAc
Procedure, shortened: as §1

[34] = molecular target: Kdn(a2-3)Gal(b1-4)GlcNAc
Procedure, shortened: as §1

B1: F17eG (Escherichia coli), Q9RH92 (protein)
chain: MTNFYKVFLAVFILVCCNISHAAVSFIGSTENDVGPSQSSYSRTHAMDNLPFVYNTGYNIGYQNANVWRISGGFCVGLDGKVDLPVVGSLDGQSIYGLTEEVGLLIWMGDTNYSRGTAMSGNSWENVFSGWCVGNYVSTQGLSVHVRPVILKRNSSAQYSVQKTSIGSIRMRPYNGSSAGSVQTTVNFSLNPFTLNDTVTSCRLLTPSAVNVSLAAISAGQLPSSGDEVVAGTTSLKLQCDAGVTVWATLTDATTPSNRSDILTLTGASTATGVGLRIYKNTDSTPLKFGPDSPVKGNENQWQLSTGTETSPSVRLYVKYVNTGEGINPGTVNGISTFTFSYQ
glycan array binding signal (z-score) [1]: -0.271 | glycan array binding signal (z-score) [2]: -0.298 | glycan array binding signal (z-score) [3]: -0.311 | glycan array binding signal (z-score) [4]: -0.303 | glycan array binding signal (z-score) [5]: 4.3 | glycan array binding signal (z-score) [6]: -0.295 | glycan array binding signal (z-score) [7]: -0.305 | glycan array binding signal (z-score) [8]: -0.306 | glycan array binding signal (z-score) [9]: -0.309 | glycan array binding signal (z-score) [10]: -0.31 | glycan array binding signal (z-score) [11]: -0.311 | glycan array binding signal (z-score) [12]: -0.308 | glycan array binding signal (z-score) [13]: -0.28 | glycan array binding signal (z-score) [14]: -0.308 | glycan array binding signal (z-score) [15]: -0.292 | glycan array binding signal (z-score) [16]: -0.304 | glycan array binding signal (z-score) [17]: 3.21 | glycan array binding signal (z-score) [18]: 4.04 | glycan array binding signal (z-score) [19]: 4.59 | glycan array binding signal (z-score) [20]: 1.92 | glycan array binding signal (z-score) [21]: 3.63 | glycan array binding signal (z-score) [22]: 2.71 | glycan array binding signal (z-score) [23]: 3.49 | glycan array binding signal (z-score) [24]: 3.94 | glycan array binding signal (z-score) [25]: 4.3 | glycan array binding signal (z-score) [26]: 3.3 | glycan array binding signal (z-score) [27]: 0.197 | glycan array binding signal (z-score) [28]: -0.28 | glycan array binding signal (z-score) [29]: -0.275 | glycan array binding signal (z-score) [30]: 3.15 | glycan array binding signal (z-score) [31]: 3.4 | glycan array binding signal (z-score) [32]: 3.67 | glycan array binding signal (z-score) [33]: -0.308 | glycan array binding signal (z-score) [34]: -0.316
